The campaign covered roughly 410,000 compounds. About 1,200 (0.29%) were called active. Inconclusive means that the source gave no clear call. Such entries were picked first, then a sample of the others. Calls follow the shape of the dose curve; as a rule, active = well fitted activation curve with a large enough effect; inconclusive = small, poorly fitted or top-dose-only effect; inactive = flat fitted curve, though single readings scatter. Where the call is inconclusive, the potency comes from a doubtful curve fit.
Assay: qHTS of Nrf2 Activators; also: nearly all actives have a fitted effect of over 65% in size; as to activation: % of control where 0% means no effect
Conditions: AREc32 ARE-luciferase reporter (MCF7-derived line), luminescence, 24 h; activation: at 46.1 µM (top of the series)
Method in brief: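 Nrf2 activation is followed as ARE-luciferase induction in the AREc32 line after one day of compound treatment; luminescence is read with Steady-Glo.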
Potency is read from the fitted curve at half-maximal effect; tags tell the direction and shape of the fitted curve.

Q: For `CN(C)c1ccc(O)c2c1CC1CC3[C@@H](N(C)C)C(=O)C(C(N)=O)=C(O)[C@]3(O)C(=O)C1=C2O` (some centres undefined), which “activation” value is on record?
A: inactive: 0.128%

Q: With `Cc1cc(Nc2ccccc2)nc(-c2ccccc2O)n1` as the compound, how does the “activation” value read?
A: inactive: 10.5%

Q: Which Potency does the source give for `Cc1cc(=O)oc2cc(O)c(N=Nc3ccccc3)cc12` here?
A: inconclusive: 3.55 µM [activator, partial curve, poor fit]

Q: Which Potency does the source give for `COc1ccc(C(O)c2nc(-c3ccoc3)cs2)cc1` (centres undefined) here?
A: inconclusive: 28.2 µM [activator, single point]

Q: For `CCC1CCCCN1CCCNC(=O)c1[nH]c2ccccc2c1Sc1ccc(Cl)cc1` (centres undefined), which “activation” value is on record?
A: inactive: -3.01%

Q: Which “activation” value does the source give for `C[C@@H]1CC=C[C@@H]2[C@H]1C(=O)N(Cc1ccccc1)[C@H]2c1cccc(Br)c1` here?
A: inactive: 0.241%

Q: With `Cc1cccc(Nc2nc(-c3cccs3)cs2)n1` as the compound, how does the Potency read?
A: inconclusive: 2.24 µM [activator, partial curve, poor fit]

Q: For `O=C(Nc1ccc(Cl)cc1)c1ccco1`, which Potency is on record?
A: inconclusive: 12.6 µM [activator, single point]

Q: Which “activation” value does the source give for `COc1ccccc1N1CCN(Cc2nc(-c3ccc(F)cc3)oc2C)CC1` here?
A: inactive: 4.07%

Q: With `COc1cc(-c2nc(-c3ccccc3)c(-c3cc([N+](=O)[O-])ccc3C)[nH]2)cc(OC)c1OC` as the compound, how does the “activation” value read?
A: inactive: 5.47%

Q: With `O=C(Nc1ccc2sc3ccccc3c(=O)c2c1)c1ccccc1Cl` as the compound, how does the Potency read?
A: inconclusive: 2.51 µM [activator, full curve, poor fit]

Q: Which Potency does the source give for `CSc1nc2nc(-c3ccccc3)cc(C(F)(F)F)n2n1` here?
A: inconclusive: 15.8 µM [activator, single point]

Q: With `COc1cccc(C2C(C(=O)c3cc4ccccc4o3)=C(O)C(=O)N2c2cc(C)on2)c1OC` (centres undefined) as the compound, how does the “activation” value read?
A: inactive: 17.6%

Q: Which Potency does the source give for `C[C@@]12CCC=C[C@H]1[C@H](c1ccc3ccccc3c1Br)N(Cc1ccccc1)C2=O` here?
A: inconclusive: 31.6 µM [activator, partial curve, poor fit]

Q: With `C/C(=N\Nc1ccc(F)cc1F)c1ccc(Br)s1` as the compound, how does the Potency read?
A: inconclusive: 6.31 µM [activator, partial curve]

Q: For `COc1ccc(N2N=NN(C(C)C)C2=C(Cl)c2nnnn2-c2ccc(OC)cc2)cc1`, which Potency is on record?
A: active: 15.8 µM

Q: For `COc1ccc(C2=Nc3ccccc3OC2)cc1`, which Potency is on record?
A: active: 11.2 µM

Q: Which “activation” value does the source give for `Cc1ccc2c(n1)sc1c(N)ncnc12` here?
A: inactive: 2.66%

Q: For `Clc1ccc(/C=C/c2ncc3ccccn23)cc1`, which Potency is on record?
A: inconclusive: 1.58 µM [activator, full curve, poor fit]

Q: Which Potency does the source give for `O=C(/C=C/c1ccc(Br)cc1)NC(=O)c1ccccc1O` here?
A: inconclusive: 17.8 µM [activator, partial curve, poor fit]

Q: For `CCOc1ccc(C(=O)CCN2CCOCC2)cc1`, which Potency is on record?
A: inconclusive: 25.1 µM [activator, single point]

Q: With `COc1cc(/C=C(/C(=O)c2cccs2)c2nc3ccccc3[nH]2)cc(OC)c1O` as the compound, how does the Potency read?
A: inconclusive: 5.62 µM [activator, single point]

Q: With `C=CCNC(=S)NNC(=O)c1cc(O)ccc1O` as the compound, how does the Potency read?
A: inconclusive: 31.6 µM [activator, single point]

Q: Which Potency does the source give for `O=c1cc(-c2ccccc2)nc2n1Cc1ccccc1-2` here?
A: inconclusive: 12.6 µM [activator, partial curve, poor fit]

Q: Which Potency does the source give for `COc1cccc(/C=C2\CCc3ccccc3C2=O)c1` here?
A: inconclusive: 22.4 µM [activator, single point]

Q: With `Clc1ccccc1CSc1nnc(-c2ccco2)c(-c2ccco2)n1` as the compound, how does the Potency read?
A: inconclusive: 12.6 µM [activator, partial curve, poor fit]

Q: Which Potency does the source give for `Cc1ccc(/C=N\Nc2cn[nH]c(=O)c2Cl)cc1` here?
A: inconclusive: 20 µM [activator, single point]

Q: With `COc1ccc(Cl)cc1NC(=O)c1cnc(SC)nc1-c1ccccc1` as the compound, how does the Potency read?
A: inconclusive: 12.6 µM [activator, partial curve, poor fit]

Q: With `O=C(COC(=O)c1ccc(-c2ccc([N+](=O)[O-])cc2)o1)NC(=O)NC12CC3CC(CC(C3)C1)C2` as the compound, how does the “activation” value read?
A: inactive: 2.77%

Q: With `CN(C)/C=N/C1=C(C#N)C(c2cccs2)c2ccc3ccccc3c2O1` (centres undefined) as the compound, how does the Potency read?
A: active: 8.91 µM

Q: Which Potency does the source give for `NC(=O)c1cc([N+](=O)[O-])c(Cl)cc1NCc1ccncc1` here?
A: inconclusive: 14.1 µM [activator, single point]

Q: Which Potency does the source give for `CCN(CC)CCNCC1C(=O)O[C@@H]2C[C@@]3(C)CCC[C@H](C)C3=C[C@H]12` (some centres undefined) here?
A: active: 11.2 µM

Q: For `Cc1nc(-c2cccc(NC(=O)c3ccco3)c2)cs1`, which Potency is on record?
A: inconclusive: 15.8 µM [activator, single point]

Q: Which “activation” value does the source give for `Cc1ccc(NC(=O)C(C)OC(=O)c2ccc(Cl)nc2)cc1S(=O)(=O)N1CCOCC1` (centres undefined) here?
A: inactive: 0.965%

Q: Which Potency does the source give for `Cc1ccc(-n2nnnc2Sc2nc([N+](=O)[O-])nn2C)cc1` here?
A: inconclusive: 22.4 µM [activator, single point]

Q: With `Cc1cccc(C(=O)O/N=C(\N)c2ccccn2)c1` as the compound, how does the Potency read?
A: inconclusive: 3.55 µM [activator, partial curve, poor fit]

Q: With `S=C(NN=Cc1ccccn1)Nc1ccccn1` as the compound, how does the Potency read?
A: inconclusive: 11.2 µM [activator, partial curve, poor fit]

Q: With `CCOC(=O)C1=C(COC(=O)c2cc([N+](=O)[O-])ccc2Cl)NC(=O)NC1C` (centres undefined) as the compound, how does the Potency read?
A: inconclusive: 22.4 µM [activator, single point]

Q: Which Potency does the source give for `N#C/C(=C\c1cccc(Br)c1)C(=O)N1CCCCC1` here?
A: inconclusive: 25.1 µM [activator, single point]

Q: Which Potency does the source give for `COc1ccc2nc(NC(=O)c3nc(S(=O)(=O)Cc4ccccc4)ncc3Cl)sc2c1` here?
A: inconclusive: 12.6 µM [activator, partial curve, poor fit]

Q: With `O=C(Nc1ccccn1)Nc1ccccc1Cl` as the compound, how does the Potency read?
A: inconclusive: 2 µM [activator, full curve, poor fit]

Q: Which Potency does the source give for `COc1ccccc1-c1nnc(NC(=O)C(C)Sc2nncn2C)s1` (centres undefined) here?
A: inconclusive: 12.6 µM [activator, single point]

Q: Which Potency does the source give for `N#CCCN(C(=O)CCl)c1cccc(Cl)c1` here?
A: inconclusive: 12.6 µM [activator, partial curve]

Q: For `Cc1nn(-c2ccccc2)c(Cl)c1C1C(C#N)=C(N)Oc2c1c(C)nn2-c1ccccc1` (centres undefined), which Potency is on record?
A: inconclusive: 17.8 µM [activator, single point]
